{
  "source": "paper PMC9679702",
  "about": "“BI 456906: Discovery and preclinical pharmacology of a novel GCGR/GLP-1R dual agonist with robust anti-obesity efficacy” (Molecular Metabolism, 2022)",
  "system": "cAMP response element (CRE)-luciferase",
  "settings": "CRE-Luc mice, ex vivo tissue, 10 mg/kg intraperitoneal, vs vehicle",
  "data": [
    {"smiles": "CC(C)NCC(O)c1ccc(O)c(O)c1", "note": "(centres unmarked) [isoproterenol]", "values": [
      {"measurement": "increase of liver luciferase activity", "result": "~10", "unit": "fold"},
      {"measurement": "increase of pancreas luciferase activity", "result": "~1000", "unit": "fold"}
    ]}
  ]
}
